Measurements taken from the supplement of paper PMC12582362.
Where a name gives a salt, the structure may show the parent alone. The whole screen tested about 1,500 compounds, of which about 30 (2%) showed activity.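 Rule for the calls: active = robust z-score below -2; a few such results were not called.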 The list shows a part of the results.

Each compound was assayed on optoTopBP1 Flp-In 293 T-REx (HEK293) cells (assay: light-induced TopBP1 condensate (nuclear foci) count, plate-normalised robust z-score vs non-control wells; higher = more TopBP1 condensates (negative = condensation inhibitor), active = hit call of the paper). Settings: 10 µM; incubation time 2 h.

SMILES | light-induced TopBP1 condensate (z-score)
CC[C@H]1OC(=O)C[C@@H](O)[C@H](C)[C@@H](O[C@@H]2O[C@H](C)[C@@H](O[C@H]3C[C@@](C)(O)[C@@H](O)[C@H](C)O3)[C@H](N(C)C)[C@H]2O)[C@@H](CC=O)C[C@@H](C)C(=O)/C=C/C(C)=C/[C@@H]1CO[C@@H]1O[C@H](C)[C@@H](O)[C@@H](OC)[C@H]1OC [Tylosin] | inactive: 0.755
O=C(CCCCCCC(=O)Nc1ccccc1)NO [Vorinostat] | inactive: 0.977
COC(=O)C1=C(C)NC(C)=C(C(=O)OC2CCCN(Cc3ccccc3)C2)C1c1cccc([N+](=O)[O-])c1 (stereo not drawn) [Benidipine hydrochloride] | inactive: -1.09
CCNC(=O)CCC/C=C\C[C@@H]1[C@@H](/C=C/[C@@H](O)CCc2ccccc2)[C@H](O)C[C@@H]1O [Bimatoprost] | inactive: 1.78
C[C@]12C[C@H](O)[C@H]3[C@@H](CCC4=CC(=O)CC[C@@]43C)[C@@H]1CC[C@@H]2C(=O)CO [Corticosterone] | inactive: 1.02
CC1(C)O[C@@H]2C[C@H]3[C@@H]4CCC5=CC(=O)C=C[C@]5(C)[C@H]4[C@@H](O)C[C@]3(C)[C@]2(C(=O)CO)O1 [Desonide] | inactive: -0.951
CCN(CC)C(=S)SSC(=S)N(CC)CC [Disulfiram] | active: -4.41
C/C(=C(\CCOP(=O)(O)O)SC(=O)c1ccccc1)N(C=O)Cc1cnc(C)nc1N [Benfotiamine] | inactive: 1.34
Nc1c2c(nc3ccccc13)CCCC2 [Tacrine hydrochloride] | inactive: 0.977
CN1CC(O)C2=C/C(=N/NC(N)=O)C(=O)C=C21 (stereo not drawn) [Carbazochrome] | inactive: -0.923
NC[C@@H]1O[C@@H](O[C@H]2[C@H](O)[C@@H](O[C@H]3O[C@H](CO)[C@@H](O)[C@H](N)[C@H]3O)[C@H](N)C[C@@H]2N)[C@@H](O)[C@H](O)[C@H]1O [Kanamycin A sulfate] | inactive: 0.0568
COC(=O)C1=C(C#N)NC(C)=C(C(=O)OC(C)C)C1c1cccc([N+](=O)[O-])c1 (stereo not drawn) [Nilvadipine] | inactive: 0.904
CC1CC(OC(=O)c2ccccc2O)CC(C)(C)C1 (stereo not drawn) [Homosalate] | inactive: 0.705
C[C@H](CCC(=O)O)[C@H]1CC[C@H]2[C@@H]3[C@@H](O)C[C@@H]4C[C@H](O)CC[C@]4(C)[C@H]3CC[C@]12C [Urosiol] | inactive: 0.273
C#C[C@]1(O)CC[C@H]2[C@@H]3CCC4=CCCC[C@@H]4[C@H]3CC[C@@]21C [Lynestrenol] | inactive: 1.39
O=C(CCCN1CCN(c2ccccn2)CC1)c1ccc(F)cc1 [Azaperone] | inactive: -0.633
Nc1c2ccccc2nc2ccccc12 [Aminacrine] | inactive: -2.02
CN1CCC(=C2c3ccccc3Sc3ccccc32)CC1 [Pimethixene maleate] | inactive: -1.21
Cc1ccc(=O)n(-c2ccccc2)c1 [Pirfenidone] | inactive: 1.02
N[C@@H](Cc1cc(I)c(Oc2ccc(O)c(I)c2)c(I)c1)C(=O)O [Liothyronine] | inactive: -0.187
CN1CCN(C(c2ccccc2)c2ccccc2)CC1 [Cyclizine hydrochloride] | inactive: -0.648
OCCN(CCO)c1nc(N2CCCCC2)c2nc(N(CCO)CCO)nc(N3CCCCC3)c2n1 [Dipyridamole] | inactive: 0.235
CN(c1nccc(=O)[nH]1)C1CCN(c2nc3ccccc3n2Cc2ccc(F)cc2)CC1 [Mizolastine] | inactive: -0.786
O=C(O)c1ccccc1C(=O)Nc1ccc(S(=O)(=O)Nc2nccs2)cc1 [Phthalylsulfathiazole] | inactive: -0.678
CC(=O)OC(C)OC(=O)C(C)c1ccc(-c2ccccc2)c(F)c1 (stereo not drawn) [Flurbiprofen axetil] | inactive: -0.559
CO[C@@H]1[C@@H](O[C@@H]2O[C@H](C)[C@@H](O[C@H]3C[C@@](C)(O)[C@@H](OC(=O)CC(C)C)[C@H](C)O3)[C@H](N(C)C)[C@H]2O)[C@@H](CC=O)C[C@@H](C)[C@@H](O)/C=C/C=C/C[C@@H](C)OC(=O)C[C@H]1OC(C)=O [Josamycin] | inactive: 0.593

SMILES | light-induced TopBP1 condensate (z-score)
CC(=O)CC(c1ccccc1)c1c(O)c2ccccc2oc1=O (stereo not drawn) [Warfarin] | inactive: 0.476
CCC(=O)O[C@@H]1CC(=O)O[C@H](C)C/C=C/C=C/[C@H](O)[C@H](C)C[C@H](CC=O)[C@H](O[C@@H]2O[C@H](C)[C@@H](O[C@H]3C[C@@](C)(O)[C@@H](OC(=O)CC)[C@H](C)O3)[C@H](N(C)C)[C@H]2O)[C@H]1OC [Midecamycin] | inactive: 0.963
CCN(CC)CC(=O)Nc1c(C)cccc1C [Lidocaine hydrochloride] | inactive: 1.15
c1ccc2c(CC3=NCCN3)cccc2c1 [Naphazoline hydrochloride] | inactive: 0.384
CC(=O)OCC(=O)[C@@]12OC(C)(C)O[C@@H]1C[C@H]1[C@@H]3C[C@H](F)C4=CC(=O)C=C[C@]4(C)[C@@]3(F)[C@@H](O)C[C@@]12C [Fluocinonide] | inactive: 1.06
C=CC1=C(C(=O)O)N2C(=O)[C@@H](NC(=O)/C(=N\O)c3csc(N)n3)[C@H]2SC1 [Cefdinir] | inactive: 0.295
CC(=O)NS(=O)(=O)c1ccc(N)cc1 [Sulfacetamide sodic hydrate] | inactive: 0.766
Cc1cn([C@H]2C=C[C@@H](CO)O2)c(=O)[nH]c1=O [Stavudine] | inactive: -0.356
Cc1c(NC(=O)c2cccnc2)c(=O)n(-c2ccccc2)n1C [Nifenazone] | inactive: 0.773
CS(=O)(=O)OCCCCOS(C)(=O)=O [Busulfan] | inactive: 0.846
N[C@@H](Cc1c[nH]c2ccccc12)C(=O)O [L-tryptophan] | inactive: 0.55
CO/N=C(\C(=O)N[C@@H]1C(=O)N2C(C(=O)[O-])=C(C[n+]3cccc4c3CCC4)CS[C@H]12)c1csc(N)n1 [Cefpirome] | inactive: 0.182
CC(C)NC[C@@H](O)COc1ccc(CC(N)=O)cc1 [(R)-(+)-Atenolol] | inactive: -0.871
NS(=O)(=O)c1cc2c(cc1C(F)(F)F)NCNS2(=O)=O [Hydroflumethiazide] | inactive: 0.166
CC[C@@H]1C(=O)OC[C@@H]1Cc1cncn1C [Pilocarpine nitrate] | inactive: 0.176
NC(=O)c1cnccn1 [Pyrazinamide] | inactive: 0.106
N/C(=N\C(=O)c1nc(Cl)c(N)nc1N)NCc1ccccc1 [Benzamil hydrochloride] | inactive: -0.0733
O=C(CCNNC(=O)c1ccncc1)NCc1ccccc1 [Nialamide] | inactive: 0.388
N#C/C(=C1/SCC(c2ccccc2Cl)S1)n1ccnc1 (stereo not drawn) [Lanoconazole] | inactive: 0.321
CSc1nc2cc(Cl)c(Oc3cccc(Cl)c3Cl)cc2[nH]1 [Triclabendazole] | active: -2.43
Cc1nc2ccccn2c(=O)c1CCN1CCC(C(=O)c2ccc(F)cc2)CC1 [Pirenperone] | inactive: 0.141
COc1cccc2c1C(=O)c1c(O)c3c(c(O)c1C2=O)C[C@@](O)(C(=O)CO)C[C@@H]3O[C@H]1C[C@H](N)[C@@H](O)[C@H](C)O1 [Epirubicin hydrochloride] | active: -3.05
CCCN(CCC)CCc1cccc2c1CC(=O)N2 [Ropinirole hydrochloride] | inactive: -0.884
CC(=O)O[C@H]1C(=O)[C@@]2(C)[C@H]([C@H](OC(=O)c3ccccc3)[C@]3(O)C[C@H](OC(=O)[C@H](O)[C@@H](NC(=O)c4ccccc4)c4ccccc4)C(C)=C1C3(C)C)[C@]1(OC(C)=O)CO[C@@H]1C[C@@H]2O [Paclitaxel] | inactive: -0.341
Cc1ncc([N+](=O)[O-])n1CC(C)O (stereo not drawn) [Secnidazole] | inactive: 0.994
C/C=C(/C(=C/C)c1ccc(O)cc1)c1ccc(O)cc1 [Dienestrol] | inactive: 0.23

SMILES | light-induced TopBP1 condensate (z-score)
O=C(O)c1ccccc1OP(=O)(O)O [Fosfosal] | inactive: -0.403
COc1ccc2cc([C@H](C)C(=O)O)ccc2c1 [Naproxen] | inactive: 1.22
Nc1cc(N2CCCCC2)nc(N)[n+]1[O-] [Minoxidil] | inactive: -0.364
CC1(C)S[C@@H]2[C@H](NC(=O)[C@H](N)c3ccccc3)C(=O)N2[C@H]1C(=O)O [Ampicillin sodium salt] | inactive: -0.184
CC1(C)S[C@@H]2[C@H](NC(=O)[C@H](N)c3ccccc3)C(=O)N2[C@H]1C(=O)O [Ampicillin trihydrate] | inactive: 0.799
O=C(O)c1cc(=O)[nH]c(=O)[nH]1 [Orotic acid] | inactive: -0.185
O=c1n(CCCN2CCN(c3cccc(Cl)c3)CC2)nc2ccccn12 [Trazodone hydrochloride] | inactive: -0.662
CCC(NC(C)C)C(O)c1ccc(O)c2[nH]c(=O)ccc12 (stereo not drawn) [Procaterol hydrochloride] | inactive: 0.39
Nc1ncnc2c1ncn2C1OC(COP(=O)(O)O)C(O)C1O (stereo not drawn) [Adenosine 5'-monophosphate monohydrate] | inactive: 0.412
C[C@@H]1C[C@H]2[C@@H]3CCC4=CC(=O)C=C[C@]4(C)[C@@]3(Cl)[C@@H](O)C[C@]2(C)[C@@]1(OC(=O)c1ccco1)C(=O)CCl [Mometasone furoate] | inactive: -1.03
CN1CCCN(C(c2ccccc2)c2ccc(Cl)cc2)CC1 (stereo not drawn) [Homochlorcyclizine dihydrochloride] | inactive: -1.89
CCOC(=O)[C@H](CCc1ccccc1)N[C@@H](C)C(=O)N1C(=O)N(C)C[C@H]1C(=O)O [Imidapril hydrochloride] | inactive: -0.111
CCOc1ccc2nc(S(N)(=O)=O)sc2c1 [Ethoxzolamide] | inactive: -0.981
CCCCc1ccc2[nH]c(NC(=O)OC)nc2c1 [Parbendazole] | inactive: -0.867
O=c1oc2cc(O)ccc2s1 [Tioxolone] | inactive: 0.00597
C/C(=C\C(=O)OCCCCCCCCC(=O)O)C[C@@H]1OC[C@H](C[C@@H]2O[C@H]2[C@@H](C)[C@H](C)O)[C@@H](O)[C@H]1O [Mupirocin] | inactive: 0.229
CCc1cccc(CC)c1NC(=O)CN(CC(=O)O)CC(=O)O [Etifenin] | inactive: 0.43
CN/C(=N\CCSCc1nc[nH]c1C)NC#N [Cimetidine] | inactive: 0.0364
O=C(O)c1cc(/N=N/c2ccc(S(=O)(=O)Nc3ccccn3)cc2)ccc1O [Sulfasalazine] | inactive: -0.0783
CN1CCCN=C1/C=C/c1cccc(O)c1 [Oxantel pamoate] | inactive: -0.325
CC(N)CCCC(C)(C)O (stereo not drawn) [Heptaminol hydrochloride] | inactive: 0.486
CC1(C)S[C@@H]2[C@H](NC(=O)C3(N)CCCCC3)C(=O)N2[C@H]1C(=O)O [Cyclacillin] | inactive: -0.29
CC=CC1=C(C(=O)O)N2C(=O)[C@@H](NC(=O)[C@H](N)c3ccc(O)cc3)[C@H]2SC1 [Cefprozil] | inactive: -1.03
Cc1cc2c(s1)Nc1ccccc1N=C2N1CCN(C)CC1 [Olanzapine] | inactive: -0.0376
Cc1c(O)c(=O)n(-c2ccccc2)n1C [Antipyrine, 4-hydroxy] | inactive: 0.759
CC(C)OC(=O)C(C)(C)Oc1ccc(C(=O)c2ccc(Cl)cc2)cc1 [Fenofibrate] | inactive: -0.333
